From the supplement of paper PMC12067230 come the findings set out here.

Single values of this set are uncertain.

The chains are these.
B1: library; a variant is named by its letters at X, in order (parent)
chain: EASNCFAIRHFENKFAVETLICXXXXXXXX
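Further: [psi-pin-] Saccharomyces cerevisiae expressing SupN fusions, induced by 100 µM Cu2SO4, selected 7 d at 30 °C without adenine and uracil, scored by deep sequencing of output versus input.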

One data set covers variants of B1. Briefly: amyloid nucleation score relative to library mode (yeast Sup35 reporter selection) (log enrichment difference); higher = more amyloid nucleation; sequences are the first 22 residues of the Bri2 peptide extended by up to 12 random residues. As to conditions: random library (experiment): 3;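 active = nucleation score significantly above 0 at FDR 0.05; inactive = not significantly above 0 or absent from output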. The method, then:
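Random C-terminal extensions of the 22-aa Bri2 peptide by 12 NNK codons; premature stops give shorter extensions. Peptides were fused to the Sup35 nucleation domain in S. cerevisiae [psi-pin-] and selected on -ADE-URA plates for 7 d at 30 °C. The nucleation score is log(output/input), centred to the mode of each of 3 independent libraries (1 input, 3 technical output replicates), with duplicates merged. Sequences absent from the output ('random_non_nuc') were imputed with the library mode value, so they are given as censored (<). Nucleators are scores significantly >0 at FDR 0.05.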
Regarding EASNCFAIRHFENKFAVETLICRGVVCRDG [RGVVCRDG], the amyloid nucleation score result was “inactive”. The same measure, in the same setting: the value for EASNCFAIRHFENKFAVETLICLKVQWRRD [LKVQWRRD] was 3.78; that for EASNCFAIRHFENKFAVETLICFLSSTFRD [FLSSTFRD] was “inactive”. On to EASNCFAIRHFENKFAVETLICCMTYRIWL [CMTYRIWL], for which the amyloid nucleation score entry was “inactive”. Same read-out and setting: to EASNCFAIRHFENKFAVETLICNAAWRMDS [NAAWRMDS] belongs 1.3; to EASNCFAIRHFENKFAVETLICGRRYGWYF [GRRYGWYF], “inactive”; to EASNCFAIRHFENKFAVETLICVGRWSSHG [VGRWSSHG], “inactive”.

For EASNCFAIRHFENKFAVETLICEDQVTSQL [EDQVTSQL], the amyloid nucleation score result is “inactive”. In the case of EASNCFAIRHFENKFAVETLICVVRSSHKP [VVRSSHKP], the amyloid nucleation score result is “inactive”.

For EASNCFAIRHFENKFAVETLICFGCACIYR [FGCACIYR], the amyloid nucleation score is 8.9.

For the variant EASNCFAIRHFENKFAVETLICVVIGFARG [VVIGFARG], the amyloid nucleation score result is “inactive”. Same read-out and setting: to EASNCFAIRHFENKFAVETLICAPGRWKEA [APGRWKEA] belongs “inactive”; to EASNCFAIRHFENKFAVETLICALVVLCGR [ALVVLCGR], 4.55.

On to EASNCFAIRHFENKFAVETLICLLVYSCAG [LLVYSCAG], for which the amyloid nucleation score entry is “inactive”. On the same count and under the same terms, to EASNCFAIRHFENKFAVETLICLNYNGAVV [LNYNGAVV] belongs 5.37; to EASNCFAIRHFENKFAVETLICPGWDAKRS [PGWDAKRS], “inactive”; to EASNCFAIRHFENKFAVETLICGLQGAARY [GLQGAARY], “inactive”. Same read-out and setting: to EASNCFAIRHFENKFAVETLICLSVLVVPN [LSVLVVPN] belongs 4.76; to EASNCFAIRHFENKFAVETLICLGVRIGML [LGVRIGML], “inactive”; to EASNCFAIRHFENKFAVETLICNCSCKLVV [NCSCKLVV], 7.2. For the variant EASNCFAIRHFENKFAVETLICVASRSAVI [VASRSAVI], the amyloid nucleation score entry was “inactive”. Same read-out and setting: to EASNCFAIRHFENKFAVETLICTEYVNEGM [TEYVNEGM] belongs 0.711; to EASNCFAIRHFENKFAVETLICWDVRVVGS [WDVRVVGS], “inactive”.

With EASNCFAIRHFENKFAVETLICTATDMVYR [TATDMVYR], the amyloid nucleation score entry is “inactive”.

Take EASNCFAIRHFENKFAVETLICRRKARLVA [RRKARLVA]: the amyloid nucleation score result was “inactive”.

With EASNCFAIRHFENKFAVETLICGTSGGRYT [GTSGGRYT], the amyloid nucleation score entry was “inactive”. The same measure, in the same setting: to EASNCFAIRHFENKFAVETLICLSSSLCDT [LSSSLCDT] belongs 6.58.

Consider EASNCFAIRHFENKFAVETLICGEKGSLCG [GEKGSLCG], for which the amyloid nucleation score result was “inactive”. Regarding EASNCFAIRHFENKFAVETLICVSWLTAVG [VSWLTAVG], the amyloid nucleation score result is “inactive”. On the same count and under the same terms, the value for EASNCFAIRHFENKFAVETLICMREVVGFN [MREVVGFN] was “inactive”.

Regarding EASNCFAIRHFENKFAVETLICVDASKRVT [VDASKRVT], the amyloid nucleation score was 4.46. On the same count and under the same terms, the value for EASNCFAIRHFENKFAVETLICNHAFQGCG [NHAFQGCG] was “inactive”; that for EASNCFAIRHFENKFAVETLICELLTGCIV [ELLTGCIV] was “inactive”; that for EASNCFAIRHFENKFAVETLICDLMGRMLP [DLMGRMLP] was 0.903. Same read-out and setting: the value for EASNCFAIRHFENKFAVETLICFRFKSFVI [FRFKSFVI] was “inactive”. On to EASNCFAIRHFENKFAVETLICGGCPQLRL [GGCPQLRL], for which the amyloid nucleation score is -0.0354.

In the case of EASNCFAIRHFENKFAVETLICGRRSNLKH [GRRSNLKH], the amyloid nucleation score result is “inactive”. Still for that read-out and setting: the value for EASNCFAIRHFENKFAVETLICVSGSRRDT [VSGSRRDT] was “inactive”; that for EASNCFAIRHFENKFAVETLICVVSSHCAL [VVSSHCAL] was 0.918; that for EASNCFAIRHFENKFAVETLICVVQLAGRW [VVQLAGRW] was -0.532.

Consider EASNCFAIRHFENKFAVETLICDQVRARGT [DQVRARGT], for which the amyloid nucleation score result was “inactive”. On the same count and under the same terms, to EASNCFAIRHFENKFAVETLICPSVFIEFR [PSVFIEFR] belongs 6.48; to EASNCFAIRHFENKFAVETLICDNGFWGRA [DNGFWGRA], “inactive”; to EASNCFAIRHFENKFAVETLICRLCLAECR [RLCLAECR], “inactive”.

As to EASNCFAIRHFENKFAVETLICVELYNSVY [VELYNSVY], the amyloid nucleation score result is “inactive”.

Staying with this data set, now noted: random library (experiment): 2.
Consider EASNCFAIRHFENKFAVETLICLYMMIHYY [LYMMIHYY], for which the amyloid nucleation score entry was “inactive”.

Turning to EASNCFAIRHFENKFAVETLICTTSFWICM [TTSFWICM], the amyloid nucleation score worked out at 6.78. Regarding EASNCFAIRHFENKFAVETLICLSGMRLLV [LSGMRLLV], the amyloid nucleation score entry is “inactive”. Still for that read-out and setting: the value for EASNCFAIRHFENKFAVETLICFSGAQERW [FSGAQERW] was 5.1; that for EASNCFAIRHFENKFAVETLICGPVPSAYV [GPVPSAYV] was “inactive”; that for EASNCFAIRHFENKFAVETLICIVSLSGSF [IVSLSGSF] was “inactive”. The same measure, in the same setting: the value for EASNCFAIRHFENKFAVETLICISLFTRGY [ISLFTRGY] was 3.57; that for EASNCFAIRHFENKFAVETLICWTHCCTHY [WTHCCTHY] was 7.86; that for EASNCFAIRHFENKFAVETLICFVAILWCQ [FVAILWCQ] was “inactive”. On the same count and under the same terms, the value for EASNCFAIRHFENKFAVETLICEVLCPTIM [EVLCPTIM] was “inactive”; that for EASNCFAIRHFENKFAVETLICVYSHNFYN [VYSHNFYN] was 7.3.

Regarding EASNCFAIRHFENKFAVETLICPSYVNRVR [PSYVNRVR], the amyloid nucleation score entry was “inactive”. The same measure, in the same setting: the value for EASNCFAIRHFENKFAVETLICFTQNSFDS [FTQNSFDS] was 4.52; that for EASNCFAIRHFENKFAVETLICLRLWGKLC [LRLWGKLC] was -0.0677.

For EASNCFAIRHFENKFAVETLICDVWFKLNS [DVWFKLNS], the amyloid nucleation score result was “inactive”. For the variant EASNCFAIRHFENKFAVETLICCVWYSYAW [CVWYSYAW], the amyloid nucleation score was found to be 7.48. EASNCFAIRHFENKFAVETLICCWNSISHV [CWNSISHV]: the amyloid nucleation score came out at 8.39. On the same count and under the same terms, to EASNCFAIRHFENKFAVETLICTVPVTSRY [TVPVTSRY] belongs “inactive”; to EASNCFAIRHFENKFAVETLICVTSCYCCV [VTSCYCCV], 2.9. Still for that read-out and setting: the value for EASNCFAIRHFENKFAVETLICRVHYMAFY [RVHYMAFY] was “inactive”. On the same count and under the same terms, to EASNCFAIRHFENKFAVETLICIYIQMHCR [IYIQMHCR] belongs “inactive”; to EASNCFAIRHFENKFAVETLICDSGTCGLG [DSGTCGLG], “inactive”; to EASNCFAIRHFENKFAVETLICPWSSGLAG [PWSSGLAG], 2.71. With EASNCFAIRHFENKFAVETLICCYYCQLNY [CYYCQLNY], the amyloid nucleation score is 6.28. For the variant EASNCFAIRHFENKFAVETLICNSKICLGN [NSKICLGN], the amyloid nucleation score is 6.04. Take EASNCFAIRHFENKFAVETLICARESRIAN [ARESRIAN]: the amyloid nucleation score entry was “inactive”.
